In paper PMC4336329 (PLoS ONE, 2015):
Among all 310,000 compounds or so, about 14,000 (4.5%) showed an effect of 50% or more. Effects have a minus sign here. Some of the results follow.

biological target: human ether-à-go-go-related gene (hERG) potassium channel (human, UniProt Q12809); assay: primary screen, population patch clamp on CHO cells stably expressing hERG
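Further: peak tail current of the secondary pulse compared with the same well before compound.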

Sequence of human ether-à-go-go-related gene (hERG) potassium channel (Q12809 whole entry, looked up): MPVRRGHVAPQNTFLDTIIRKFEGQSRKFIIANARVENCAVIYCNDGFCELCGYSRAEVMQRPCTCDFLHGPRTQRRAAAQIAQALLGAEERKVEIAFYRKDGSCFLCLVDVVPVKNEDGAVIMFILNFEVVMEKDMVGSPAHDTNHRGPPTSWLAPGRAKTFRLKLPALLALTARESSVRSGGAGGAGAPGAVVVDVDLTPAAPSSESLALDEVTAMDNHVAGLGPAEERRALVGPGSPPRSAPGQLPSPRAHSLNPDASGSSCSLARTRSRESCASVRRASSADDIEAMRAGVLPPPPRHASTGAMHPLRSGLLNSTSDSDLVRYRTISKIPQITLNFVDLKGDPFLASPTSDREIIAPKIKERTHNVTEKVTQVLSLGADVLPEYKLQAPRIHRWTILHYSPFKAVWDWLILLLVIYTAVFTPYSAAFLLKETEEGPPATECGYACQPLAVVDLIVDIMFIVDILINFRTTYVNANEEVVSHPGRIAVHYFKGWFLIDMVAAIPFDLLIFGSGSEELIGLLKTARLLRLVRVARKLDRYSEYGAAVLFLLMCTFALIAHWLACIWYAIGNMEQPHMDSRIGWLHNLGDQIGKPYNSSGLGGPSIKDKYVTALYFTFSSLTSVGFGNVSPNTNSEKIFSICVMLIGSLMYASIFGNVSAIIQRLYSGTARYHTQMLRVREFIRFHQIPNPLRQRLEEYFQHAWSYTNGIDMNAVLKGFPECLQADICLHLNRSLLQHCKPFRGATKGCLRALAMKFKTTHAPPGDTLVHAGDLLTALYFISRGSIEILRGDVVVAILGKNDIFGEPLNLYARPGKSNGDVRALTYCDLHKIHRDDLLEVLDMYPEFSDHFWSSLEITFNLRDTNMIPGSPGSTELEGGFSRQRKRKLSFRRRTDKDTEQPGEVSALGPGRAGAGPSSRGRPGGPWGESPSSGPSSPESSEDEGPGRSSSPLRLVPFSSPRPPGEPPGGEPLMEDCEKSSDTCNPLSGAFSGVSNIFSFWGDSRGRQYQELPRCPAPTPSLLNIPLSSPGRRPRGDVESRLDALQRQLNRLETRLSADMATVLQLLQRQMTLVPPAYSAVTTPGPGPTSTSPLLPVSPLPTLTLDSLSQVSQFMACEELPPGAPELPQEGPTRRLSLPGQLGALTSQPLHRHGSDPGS

SMILES	hERG current change (%, negative = inhibition) at 10uM
CC(/C=N/NC(=O)c1cc(C(C)(C)C)[nH]n1)=C\c1ccccc1	-7.26%
O=c1[nH][nH]c(-c2ccccc2O)c1C(C[N+](=O)[O-])c1cccc(Cl)c1 (stereo not drawn)	15.1%
CC(c1cccs1)N(C)Cc1nc(CCc2ccccc2)no1 (stereo not drawn)	-10.3%
OCC1(CCOc2ccccc2)CCN(Cc2ccccc2OC(F)F)CC1	-72.5%
O=C(CSC(=S)N1CCCC1)Nc1ccc(Br)cc1Cl	17.5%
CC(C)Sc1nc2c(cnn2-c2ccc(Cl)cc2)c(=O)[nH]1	26.2%
O=C(CC1C(=O)NCCN1C/C=C/c1ccccc1)NCCc1cccnc1 (stereo not drawn)	11.6%
CCCCN1C(=O)/C(=C2/Sc3ccc(OC)cc3N2CC)SC1=S	25.5%
CC1CN(C(=S)NC(=O)c2ccccc2)CC(C)O1 (stereo not drawn)	28.1%
CC(O)CNCc1ccccc1C(F)(F)F.Cl (stereo not drawn)	8.11%
COCCn1c(C)cc(/C=C2/NC(=O)N(c3cccc(Cl)c3)C2=O)c1C	2.18%
O=C(CSc1nc2ccccc2s1)Nc1cc(C(=O)O)cc(C(=O)O)c1	1.17%
COc1ccc(S(=O)(=O)N(CC(=O)N2CCOCC2)c2ccc(F)cc2)cc1OC	10.7%
COc1ccc(NC(=O)CN2C(=O)c3ccccc3Sc3ccc(C(=O)N4CCOCC4)cc32)c(OC)c1	-3.05%
CC(=O)Nc1ccc(S(=O)(=O)N2CCc3ccccc3C2)cc1	3.65%
c1cc2c(cc1CN1CCOCC1)OCO2	20.9%
COc1ccc(NC(=O)COC(=O)Cc2ccc(Br)cc2)cc1	10.5%
S=C(NCC1CCCO1)Nc1ccccc1 (stereo not drawn)	25.5%
CCc1nnc(NC(=O)Cn2ccc(C(F)(F)F)n2)s1	19.2%
COc1ccccc1CN1CCN(C(=O)COc2ccccc2)CC1	-8.47%
CCC1CCCCN1C(=O)CSc1nc(C)cc(C)n1 (stereo not drawn)	-12.8%
CCCn1c(SCC(=O)NC2CCCCC2C)n[nH]c1=O (stereo not drawn)	4.21%
O=C(CCl)NCc1cc(-c2ccc(Cl)cc2)no1	22.9%

SMILES	hERG current change (%, negative = inhibition) at 10uM
COc1ccc(-c2cnn3c(N)c(S(=O)(=O)C(C)(C)C)cnc23)cc1	1.47%
O=C(N/N=C/c1coc2ccccc2c1=O)c1ccncc1	18.9%
Cc1ccc(S(=O)(=O)N2CCC(C(=O)N3CCN(Cc4ccccc4)CC3)CC2)cc1	-26%
CC(=O)C(=Cc1ccc(C(=O)O)cc1)C(C)=O	21.6%
CCOC(=O)N1CCN(C2CC(=O)N(c3ccc(Oc4ccccc4)cc3)C2=O)CC1 (stereo not drawn)	-26.6%
C/C=C(\C)C(=O)NCCN1C2=NC[C@@H](Cc3ccccc3)N2C[C@H]1Cc1ccc(O)cc1	12.8%
Cc1ccc(OCCn2nc3ccccc3n2)c(C)c1	-4.53%
CC1CCN(C(=O)COc2ccc3ccccc3c2Br)CC1	11.8%
COC(=O)[C@H](Cc1ccccc1)NC(=O)NCCC1=CCCCC1	-11.6%
CCCCOc1ccc(NC(=O)[C@@H]2CCCN2C(=O)C2CCN(S(=O)(=O)c3ccc(C)cc3)CC2)cc1	-12.3%
Nc1cc(=O)[nH]c(SCC(=O)NNC(=O)Cc2ccccc2)n1	24.5%
CCN(CC)S(=O)(=O)c1ccc(N2CCCCC2)c(NC(=O)/C=C/c2ccc(OC)c(OC)c2)c1	-20.7%
CCn1c(SCC(=O)NCCc2ccc(OC)c(OC)c2)nc2c1c(=O)n(C)c(=O)n2C	-4.63%
O=c1c2[nH]c3ccccc3c2nc2n1CCS2	3.75%
CCOC(=O)c1cnc2c(cnn2C)c1NCCCn1ccnc1	-35.9%
CC12CCC(=O)N1C(C(=O)Nc1ccc(F)c(Cl)c1)CS2 (stereo not drawn)	-8.77%
O=C(CCN1C(=O)/C(=C\c2ccccc2)SC1=S)N1CCCCC1	18.4%
O=C(Nc1nccs1)c1ccc2ccccc2n1	20.3%
Cc1cc(C)nc(NC(=O)c2ccc(C)c([N+](=O)[O-])c2)n1	-2.76%
Cc1cccc(OCC(=O)NNC(=O)c2ccc3nc[nH]c3c2)c1	12%
CC(=O)N1CCN(c2ccc(NC(=O)c3ccc(Br)o3)cc2Cl)CC1	-55.3%
O=C(Nc1cc(Cl)ccc1Cl)C1Cc2ccccc2O/C1=N\O (stereo not drawn)	-0.26%
